Reference: the supplement of paper PMC3334620
Whole data set: some 33,000 sequences, median “E-score (-0.5 to 0.5)” near -0.013, cut for the highest 2% near 0.3. The list shows a part of the results.

These sequences were tested against T1, Msn1 (UniProt P22148) (assay: PBM E-score (8-mer binding enrichment) (E-score (-0.5 to 0.5)); higher = stronger / more preferred TF binding; most listed sequences are background and not binding sites). Conditions: protein concentration: 200 nM; construct: GST-full length.
T1 sequence: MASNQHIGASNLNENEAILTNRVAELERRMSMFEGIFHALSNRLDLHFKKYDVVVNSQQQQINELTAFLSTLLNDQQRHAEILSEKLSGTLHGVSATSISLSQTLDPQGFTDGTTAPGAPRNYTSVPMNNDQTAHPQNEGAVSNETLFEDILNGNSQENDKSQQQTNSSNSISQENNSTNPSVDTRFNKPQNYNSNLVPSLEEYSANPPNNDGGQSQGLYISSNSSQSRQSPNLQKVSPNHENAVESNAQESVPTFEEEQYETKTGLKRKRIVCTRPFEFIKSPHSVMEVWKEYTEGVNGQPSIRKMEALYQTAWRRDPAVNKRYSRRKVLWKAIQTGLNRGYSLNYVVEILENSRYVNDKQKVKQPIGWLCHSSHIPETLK
Procedure, shortened: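 E-scores (a modified Wilcoxon-Mann-Whitney statistic) were assigned by the Universal PBM Analysis Suite to every ungapped eight-base word pooled with its reverse complement. The input came from universal all-10-mer Agilent arrays made double-stranded by primer extension and probed with GST-tagged yeast transcription factors at about 100-200 nM. Fluorescent anti-GST detected bound protein, and masliner normalised the scans.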
In the case of CTATAATC, the “PBM E-score” value was 0.128.
CTGCCGCA was tested, and the “PBM E-score” value was -0.0788.
For TAACTATA, the “PBM E-score” value was -0.00892.
In the case of GCGGCAGC, the “PBM E-score” value was -0.165.
GCCCAGGA was tested, and the “PBM E-score” value was -0.164.
In the case of AATCGAAT, the “PBM E-score” value was 0.047.
GACTAGCA was tested, and the “PBM E-score” value was -0.0853.
CGCACACC was tested, and the “PBM E-score” value was -0.0652.
With ACGGCTTA the “PBM E-score” value was 0.0134.
With ATCTACCG the “PBM E-score” value was 0.0459.
In the case of AACTAGAG, the “PBM E-score” value was -0.0134.
With TGACTGAA the “PBM E-score” value was -0.0539.
AGACACGA was tested, and the “PBM E-score” value was 0.158.
For GGGATGCA, the “PBM E-score” value was -0.278.
In the case of ACAATCTA, the “PBM E-score” value was 0.0825.
In the case of GCTTAGCC, the “PBM E-score” value was -0.241.
With CATCTGGG the “PBM E-score” value was 0.119.
In the case of GATACTCA, the “PBM E-score” value was -0.00561.
With GACTCGCC the “PBM E-score” value was -0.0958.
In the case of CCGAGTGA, the “PBM E-score” value was 0.113.
ACTAGAGG was tested, and the “PBM E-score” value was -0.281.
In the case of ATCACTCA, the “PBM E-score” value was -0.0853.
In the case of GGGAGCGA, the “PBM E-score” value was -0.219.
GATCTAAA was tested, and the “PBM E-score” value was -0.0173.
In the case of TTAGGCAA, the “PBM E-score” value was -0.0396.
In the case of CCATACGG, the “PBM E-score” value was -0.0434.
With ACAACACG the “PBM E-score” value was -0.00132.
In the case of AGATTTAT, the “PBM E-score” value was 0.0411.
In the case of GGGGACGA, the “PBM E-score” value was -0.0119.
For AACATAAA, the “PBM E-score” value was 0.0678.
With AATTACAA the “PBM E-score” value was -0.00201.
CTGAAAAC was tested, and the “PBM E-score” value was 0.101.
For CATAAATA, the “PBM E-score” value was 0.109.
CGGTGTAC was tested, and the “PBM E-score” value was 0.084.
GAGGTATC was tested, and the “PBM E-score” value was -0.0331.
TCGAACGA was tested, and the “PBM E-score” value was 0.0621.
With ATACTGAC the “PBM E-score” value was 0.184.
CCAAATAG was tested, and the “PBM E-score” value was -0.0591.
For ACGTGGAG, the “PBM E-score” value was -0.101.
With CCGGCTAC the “PBM E-score” value was -0.142.
In the case of AGACTGTC, the “PBM E-score” value was -0.057.
CCCACGAG was tested, and the “PBM E-score” value was -0.172.
For CTTGCCTC, the “PBM E-score” value was -0.0298.
ATGCCCTA was tested, and the “PBM E-score” value was -0.185.
For CCTCTTCG, the “PBM E-score” value was -0.142.
With CGCCCCAC the “PBM E-score” value was -0.383.
For AACGAGCC, the “PBM E-score” value was -0.0957.
AGGACTCC was tested, and the “PBM E-score” value was 0.00229.
In the case of AGCTTGCC, the “PBM E-score” value was -0.108.
For GCGATGGA, the “PBM E-score” value was 0.117.
For AGTATATA, the “PBM E-score” value was 0.258.
For CCACTAGA, the “PBM E-score” value was -0.3.
With ACCACCTA the “PBM E-score” value was -0.169.
In the case of ATCCCTAG, the “PBM E-score” value was 0.0688.
With CACTGAAC the “PBM E-score” value was 0.0298.
With ACGCGGTC the “PBM E-score” value was 0.0452.
With CTGACGCC the “PBM E-score” value was -0.121.
For AAAGGTAG, the “PBM E-score” value was -0.0444.
In the case of CTGCCCCC, the “PBM E-score” value was -0.386.
For ACGCAACC, the “PBM E-score” value was 0.117.
ACTCATAA was tested, and the “PBM E-score” value was -0.0152.
AGCTCATG was tested, and the “PBM E-score” value was -0.152.
For CTCTAAAG, the “PBM E-score” value was -0.158.
For GCATTGCA, the “PBM E-score” value was -0.0621.
For AAGGGCAC, the “PBM E-score” value was -0.153.
With CGGAGTCC the “PBM E-score” value was -0.00443.
With CGCGGCTA the “PBM E-score” value was -0.0186.
ACATGTGC was tested, and the “PBM E-score” value was 0.0743.
CGGGTCGA was tested, and the “PBM E-score” value was -0.166.
With CCTACCGA the “PBM E-score” value was -0.166.
In the case of AAAGGGTG, the “PBM E-score” value was -0.162.
In the case of ACGGATTG, the “PBM E-score” value was 0.115.
In the case of GATGCTGC, the “PBM E-score” value was -0.118.
With CTAGAGAC the “PBM E-score” value was -0.0426.
In the case of CTCGGAAG, the “PBM E-score” value was 0.0158.
With GACCTCTC the “PBM E-score” value was -0.0307.
In the case of AACTACCG, the “PBM E-score” value was -0.0649.
With GATAAACC the “PBM E-score” value was 0.118.
GGGGTTGA was tested, and the “PBM E-score” value was -0.225.
For AACATCGT, the “PBM E-score” value was -0.00311.
In the case of CGTTGGCA, the “PBM E-score” value was 0.0434.
For CGCAATCC, the “PBM E-score” value was 0.0533.
In the case of AATTACTC, the “PBM E-score” value was 0.133.
For GTTAGGCA, the “PBM E-score” value was -0.105.
With ACTGTCAG the “PBM E-score” value was 0.124.
In the case of ACCGTGTG, the “PBM E-score” value was -0.113.
In the case of GAGGTCTA, the “PBM E-score” value was -0.0808.
In the case of ACTCCTTC, the “PBM E-score” value was -0.277.
ACCCCTCT was tested, and the “PBM E-score” value was -0.318.
In the case of AGCTAGAG, the “PBM E-score” value was -0.071.
In the case of CGGCTTTC, the “PBM E-score” value was -0.00528.
For GACCAGGA, the “PBM E-score” value was 0.102.
In the case of TGGGTGAA, the “PBM E-score” value was 0.166.
For GCGGCTAA, the “PBM E-score” value was -0.0202.
ACAGGAAT was tested, and the “PBM E-score” value was 0.134.
AGGATAAG was tested, and the “PBM E-score” value was -0.249.
In the case of CGAATATC, the “PBM E-score” value was 0.0301.
With CACCTGAG the “PBM E-score” value was -0.0701.
TAGCATGA was tested, and the “PBM E-score” value was -0.0902.
In the case of TATTCTAA, the “PBM E-score” value was 0.143.
For TTCATCAA, the “PBM E-score” value was -0.105.
With CGATCGAC the “PBM E-score” value was 0.0408.
ATTCAATA was tested, and the “PBM E-score” value was 0.211.
With CTACTATC the “PBM E-score” value was 0.234.
With ATCAGTAC the “PBM E-score” value was 0.156.
With ACGGGCAA the “PBM E-score” value was -0.035.
In the case of CAGACCCG, the “PBM E-score” value was -0.0499.
With GTCTAAAC the “PBM E-score” value was 0.0711.
In the case of CAATTCAG, the “PBM E-score” value was 0.0996.
For TTCGTCAA, the “PBM E-score” value was -0.0823.
CCCCATGC was tested, and the “PBM E-score” value was -0.294.
With AAGAACGT the “PBM E-score” value was 0.0227.
For ATCAACAT, the “PBM E-score” value was 0.0928.
For AGGTAAGA, the “PBM E-score” value was 0.0114.
In the case of CTAGCGAG, the “PBM E-score” value was -0.205.
In the case of TGCCTCCA, the “PBM E-score” value was -0.291.
CAGCGTGC was tested, and the “PBM E-score” value was -0.176.
ATTTTCAC was tested, and the “PBM E-score” value was 0.175.
In the case of CCAGTCCC, the “PBM E-score” value was -0.193.
In the case of GCGTATGA, the “PBM E-score” value was -0.00068.
For AATTATAG, the “PBM E-score” value was 0.063.
With AACCAATG the “PBM E-score” value was 0.0117.
For AAGCCAAC, the “PBM E-score” value was -0.0995.
In the case of AATACAAT, the “PBM E-score” value was 0.1.
For AACGGTGA, the “PBM E-score” value was -0.0571.
In the case of ATCCGTTC, the “PBM E-score” value was 0.0622.
With CACGACGA the “PBM E-score” value was -0.161.
With ATGAGATC the “PBM E-score” value was 0.0277.
For CAAATTAA, the “PBM E-score” value was 0.0951.
With CAAAACGA the “PBM E-score” value was 0.153.
AAGTGGAG was tested, and the “PBM E-score” value was -0.108.
AATCATGC was tested, and the “PBM E-score” value was -0.255.
In the case of CTCAAGCA, the “PBM E-score” value was -0.0897.
ATCACCTA was tested, and the “PBM E-score” value was 0.0704.
With TAAACAGA the “PBM E-score” value was 0.02.
With CATTCTGC the “PBM E-score” value was 0.165.
In the case of GAGGATCC, the “PBM E-score” value was -0.0362.
For GTCTCGTA, the “PBM E-score” value was -0.0386.
ACACATGC was tested, and the “PBM E-score” value was 0.0801.
For AATAGTTA, the “PBM E-score” value was -0.1.
For ACGCCTAC, the “PBM E-score” value was -0.136.
GAATGACC was tested, and the “PBM E-score” value was 0.201.
In the case of CCTTCCGC, the “PBM E-score” value was -0.175.
In the case of ACCGTTAT, the “PBM E-score” value was 0.0456.
In the case of ACTCATCA, the “PBM E-score” value was -0.0883.
AGGCACCA was tested, and the “PBM E-score” value was -0.178.
AATCGATA was tested, and the “PBM E-score” value was 0.172.
In the case of CCTCCAAG, the “PBM E-score” value was -0.0188.
In the case of ATTAACAA, the “PBM E-score” value was 0.257.
In the case of GAACACCA, the “PBM E-score” value was -0.0259.
In the case of AGAGCCCG, the “PBM E-score” value was -0.226.
TCGATAGA was tested, and the “PBM E-score” value was 0.028.
In the case of TCATCAAA, the “PBM E-score” value was 0.0326.
With TCGTTAAA the “PBM E-score” value was -0.0199.
CACATCTC was tested, and the “PBM E-score” value was 0.0156.
In the case of ACCCATCC, the “PBM E-score” value was -0.197.
For AAGTGGGG, the “PBM E-score” value was -0.261.
For GAGCAATA, the “PBM E-score” value was -0.0215.
With AGCACTTC the “PBM E-score” value was -0.118.
CATTAGTA was tested, and the “PBM E-score” value was 0.213.
In the case of CTTAAAGC, the “PBM E-score” value was 0.0598.
CCACTGGA was tested, and the “PBM E-score” value was -0.216.
For ATCCTGAG, the “PBM E-score” value was 0.118.
With ATGTGCCA the “PBM E-score” value was 0.0995.
In the case of AATTACAG, the “PBM E-score” value was 0.0932.
In the case of CCTATCCC, the “PBM E-score” value was 0.0752.
CCAAAATC was tested, and the “PBM E-score” value was 0.0937.
With GCGCCACA the “PBM E-score” value was -0.184.
With AAATTTTA the “PBM E-score” value was 0.0681.
For AGACGCCC, the “PBM E-score” value was -0.089.
In the case of AACGTGAT, the “PBM E-score” value was -0.103.
In the case of CCGATTGA, the “PBM E-score” value was 0.0682.
